Measured values as given in publication PMC4336329 (PLoS ONE, 2015).
The campaign covered roughly 310,000 compounds. About 14,000 (4.5%) showed an effect of 50% or more. Effects have a minus sign here. The list shows a part of the results.

The compounds below were run against human ether-à-go-go-related gene (hERG) potassium channel (human, UniProt Q12809) (assay: primary screen, population patch clamp on CHO cells stably expressing hERG).
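Note: peak tail current of the secondary pulse compared with the same well before compound.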

Chain of human ether-à-go-go-related gene (hERG) potassium channel (Q12809 whole entry, looked up): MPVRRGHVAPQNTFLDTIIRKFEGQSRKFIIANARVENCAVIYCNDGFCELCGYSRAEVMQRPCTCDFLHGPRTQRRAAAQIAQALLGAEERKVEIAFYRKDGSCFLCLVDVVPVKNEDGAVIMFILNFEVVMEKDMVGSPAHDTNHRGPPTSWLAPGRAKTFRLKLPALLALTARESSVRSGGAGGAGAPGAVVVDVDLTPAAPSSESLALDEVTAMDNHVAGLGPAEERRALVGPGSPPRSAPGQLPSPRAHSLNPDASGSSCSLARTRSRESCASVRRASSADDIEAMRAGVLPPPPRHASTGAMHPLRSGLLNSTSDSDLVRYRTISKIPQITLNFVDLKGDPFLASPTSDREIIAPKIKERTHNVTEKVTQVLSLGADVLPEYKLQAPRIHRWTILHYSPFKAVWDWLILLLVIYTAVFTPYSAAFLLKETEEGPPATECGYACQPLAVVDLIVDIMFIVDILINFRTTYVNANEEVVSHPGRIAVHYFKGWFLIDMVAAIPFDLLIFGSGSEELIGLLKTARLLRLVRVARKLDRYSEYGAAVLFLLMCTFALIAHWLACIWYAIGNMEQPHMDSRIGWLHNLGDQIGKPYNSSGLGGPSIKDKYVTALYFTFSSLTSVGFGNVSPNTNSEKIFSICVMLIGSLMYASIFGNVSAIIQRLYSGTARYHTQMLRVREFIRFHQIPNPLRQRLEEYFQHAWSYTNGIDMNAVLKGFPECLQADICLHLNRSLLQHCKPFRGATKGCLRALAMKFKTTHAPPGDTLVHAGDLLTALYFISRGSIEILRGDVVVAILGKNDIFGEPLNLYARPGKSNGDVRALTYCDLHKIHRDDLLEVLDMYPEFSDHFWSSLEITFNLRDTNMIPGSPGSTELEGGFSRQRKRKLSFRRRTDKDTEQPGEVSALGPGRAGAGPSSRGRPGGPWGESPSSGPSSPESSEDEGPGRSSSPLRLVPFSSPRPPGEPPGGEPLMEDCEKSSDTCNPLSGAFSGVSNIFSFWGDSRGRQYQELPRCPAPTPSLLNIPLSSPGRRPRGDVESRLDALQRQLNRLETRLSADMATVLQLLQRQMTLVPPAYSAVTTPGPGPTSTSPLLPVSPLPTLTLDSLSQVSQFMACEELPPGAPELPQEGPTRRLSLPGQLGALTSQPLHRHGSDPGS

Compound | hERG current change (%, negative = inhibition) at 10uM
CCn1c(SCC(=O)N2CCC(C)CC2)nc2c(c1=O)SCC2 | -7.67%
COc1ccccc1-n1cc(C(=O)NCC(=O)N2CCN(c3ccccc3)CC2)c2ccccc2c1=O | -32.3%
COc1ccc(CC(=O)Nc2c3c(nn2-c2cccc(C)c2C)CS(=O)C3)cc1 (centres unmarked) | -7.27%
O=[N+]([O-])c1ccc(N2CCCCC2)nc1N1CCCCC1 | -2.43%
C/C(=N\NC(=O)c1cccc([N+](=O)[O-])c1)c1cccs1 | -6.95%
O=C(Cc1coc(-c2ccc(F)cc2)n1)NC1CCCCC1 | 7.92%
O=C(C1=C(O)C(=O)N(Cc2ccco2)C1c1cccs1)c1cccs1 (centres unmarked) | 20.6%
CCC(Oc1ccccc1F)C(=O)NCCCn1ccnc1 (centres unmarked) | -7.1%
CCOC(=O)c1c(C)[nH]c(C(=O)CSc2nnc(-c3cccs3)n2Cc2ccccc2)c1C | 16.3%
O=C(/C=C/c1ccc(Cl)cc1Cl)N1CCN(c2ccccc2[N+](=O)[O-])CC1 | -72.7%
O=C(COC(=O)Cc1ccccc1F)NCCc1ccccc1 | 0.683%
CCN(CC)Cc1c(O)c(Cl)cc2c(C)c(C)c(=O)oc12 | -4.74%
COc1ccccc1NC(=O)C1=C(C)NC2=C(C(=O)CCC2)C1c1ccc(C)o1 (centres unmarked) | 4.8%
COc1cc2c(=O)n(CCC(=O)NCC3CCCO3)c(=O)n(CC(=O)Nc3ccc(C)c(C)c3)c2cc1OC (centres unmarked) | 13.6%
COc1cc(SC)ccc1C(=O)N1CCN(c2ccccc2F)CC1 | -33.8%
Fc1ccc(CNC(=S)NCc2ccccc2)cc1 | 2.14%
CS(=O)(=O)N1CCSC1c1ccc(Br)cc1 (centres unmarked) | 3.76%
COc1ccc(Nc2nnc(SCC3CCCCO3)s2)cc1 (centres unmarked) | 20.6%
O=C(NC1=NCCS1)c1cc(-c2ccccc2)nn1-c1ccccc1 | 11.8%
Cc1ccccc1CN1CCN(Cc2cc3ccccc3o2)CC1CCO (centres unmarked) | -6.94%
COc1ccc(CNC(=O)CN(C(=O)c2csnn2)c2ccc3c(c2)OCCO3)cc1 | -5.5%
Cc1nccc(-c2cccc(NC(=O)Nc3ccc(Cl)cc3)c2)n1 | 7.12%

Compound | hERG current change (%, negative = inhibition) at 10uM
Cc1ccc2c(Cl)cc(Cl)c(OCC(=O)OCC(=O)Nc3ccc(C#N)cc3)c2n1 | 5.19%
O=C1NC(=O)c2cc(Oc3ccc([N+](=O)[O-])cc3)ccc21 | -1.52%
COC(=O)C1C(=O)C2=C(CC1C)Nc1ccccc1NC2c1ccc(C)s1 (centres unmarked) | 12.8%
Cc1cc(C)c(NC(=O)CCc2c(C)noc2C)c(C)c1 | 9.73%
Cc1c(-c2ccccc2)sc(N)c1C(=O)N1CCOCC1 | -17.1%
O=C(CN1C(=O)CCOc2ccccc21)Nc1ccc(Cl)c(S(=O)(=O)N2CCOCC2)c1 | -7.44%
COc1cc(OC)cc(-c2nnc(N(C)C(=O)c3ccncc3)s2)c1 | 31.2%
Cc1cc(C)cc(NC(=O)CCCSc2nc3ccccc3[nH]2)c1 | -2.7%
C=C(C)COc1ccc2c(C)c(CCC(=O)N3C[C@H]4C[C@@H](C3)c3cccc(=O)n3C4)c(=O)oc2c1 | -60.4%
O=c1c2ccccc2nc2n1C(CSc1ccc(F)cc1)CN2 (centres unmarked) | -5.32%
COC(=O)CS(=O)(=O)c1cccc2cccnc12 | 16.5%
Cc1ccc(-c2c3c(nc4sc(C(N)=O)c(N)c24)CCCC3)o1 | 13.4%
CCOC(=O)C(=O)Nc1ccccc1C(=O)NCc1ccccc1 | -27.9%
CCCCNC(=O)c1nn(-c2ccccc2OC)c(=O)c2ccccc12 | -4.46%
O=C(Cn1nnc(-c2cc(C(F)(F)F)cc(C(F)(F)F)c2)n1)NNC(=S)Nc1ccc(Cl)cc1 | 17.8%
COC(=O)c1c(NC(=O)CSc2nnnn2-c2ccccc2)sc2c1CCCC2 | -6.49%
COc1ccc(N/N=C(\C#N)C(=N)N2CCCCC2)cc1 | -16.3%
CC(C)CC(C(=O)Nc1cccc(O)c1)N1C(=O)c2ccccc2C1=O (centres unmarked) | -7.13%
COc1ccccc1NS(=O)(=O)c1ccc(/C=C/C(=O)O)cc1 | 1.72%
Cc1nc2sc(C(c3ccccc3)N3CCN(CCO)CC3)c(O)n2n1 (centres unmarked) | -10.8%
CCCCNC(=O)CCn1c(=O)c2cccn2c2ccc(F)cc21 | -14.2%
O=S(=O)(Nn1cnnc1)c1ccc(F)cc1 | 22.9%
